# About 1,200 (2.5%) of roughly 48,000 compounds were called active. Another 2% or so got no clear call; they are omitted.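 Rule for the calls: active = activation of at least 60% and not above a set upper limit (about 1 call in 100 departs from these limits); inconclusive = activation of 40% to 60%, or above that upper limit; inactive = activation under 40%.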 This is one part of the list.
# Target: Probable G-protein coupled receptor 32 (Homo sapiens) (UniProt O75388)
# Assay: qHTS for Agonists of Human Resolvin D1 Receptor DRV1; note: 0% is about no effect
# Conditions: CHO-K1 GPR32 beta-arrestin PathHunter luminescence, 90 min; at 76.9 µM; active compounds read high; zero percent set by DMSO-only wells
# Outline: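 Agonism was scored by beta-Gal fragment complementation (chemiluminescent read, 1 h detection at ambient temperature) reporting beta-arrestin binding to GPR32 in engineered CHO-K1 cells. Compound treatment lasted 90 min at 37 C, normalized to a DMSO basal control.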
# Chain of UniProt O75388 (O75388 whole entry, looked up): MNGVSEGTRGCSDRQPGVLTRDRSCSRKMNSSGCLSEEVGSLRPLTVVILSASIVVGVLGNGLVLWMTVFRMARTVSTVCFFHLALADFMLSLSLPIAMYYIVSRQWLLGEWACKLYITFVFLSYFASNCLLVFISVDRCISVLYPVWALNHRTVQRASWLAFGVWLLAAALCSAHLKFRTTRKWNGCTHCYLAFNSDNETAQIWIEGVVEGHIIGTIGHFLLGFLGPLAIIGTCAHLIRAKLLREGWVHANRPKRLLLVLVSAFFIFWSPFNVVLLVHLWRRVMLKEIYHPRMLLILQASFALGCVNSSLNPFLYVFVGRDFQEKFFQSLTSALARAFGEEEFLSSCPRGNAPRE
row,Structure (SMILES),activation
1,COc1cc(C(=O)NCC(c2ccc3c(c2)OCO3)N2CCN(C)CC2)cc(OC)c1OC (configuration not stated),inactive: -19.4%
2,Cc1ccc(N2CC(C(=O)NCc3nnnn3-c3ccc(C)c(C)c3)CC2=O)cc1C (configuration not stated),inactive: -11.1%
3,CCOc1cccc(C(=O)Nc2ccc(-c3nc4cc(C)cc(C)c4o3)cc2)c1,inactive: -3.67%
4,CCc1ccccc1NC(=O)Cn1nnc(C(=O)Nc2ccc(OC)c(OC)c2)c1N,inactive: 3.23%
5,CCc1ccc(S(=O)(=O)N2CCN(c3ccc(Cl)c(Cl)c3)CC2)cc1,inactive: -4.09%
6,CCOC(=O)c1ccccc1NC(=O)c1nn(-c2ccc(C)cc2)c(=O)n(C)c1=O,inactive: -1.65%
7,CCCCN(Cc1ccco1)C(=O)c1cc2c(s1)-c1c(C)cccc1OC2,inactive: -15.5%
8,Cc1cccc(NC(=O)c2oc3ccc(S(=O)(=O)N(C)C4CCCCC4)cc3c2C)c1C,inactive: -16%
9,Cc1cccc(OCCOCCn2c(-c3ccc(Cl)cc3)nc3ccccc3c2=O)c1C,inactive: 8.94%
10,CCOCCCNC(=O)Cn1cc2c(n1)-c1c(oc(C(=O)N3CCCC3)c1C)CC2,inactive: 15.8%
11,COc1c(Cl)cc(Cl)cc1/C=C(\C#N)c1nc(-c2ccc(Cl)cc2)cs1,inactive: -1.33%
12,COc1ccc(-n2ncc(C(=O)NCCCN3CCCCC3)c2C2CCN(C(=O)OC(C)(C)C)CC2)cc1,inactive: -5.32%
13,COc1ccc(-c2cc(-c3ccc4c(c3)NC(=O)CO4)nc3c2COc2ccc(C)cc2-3)cc1,inactive: -2.14%
14,CCc1ccccc1NC(=O)c1cnn(-c2ccc(F)cc2)c1C1CCNCC1,inactive: -3.53%
15,Cc1c(NC(=O)C(F)(F)F)ccc2nc3c(=O)n(C)c(=O)n(C)c3nc12,inactive: 29.9%
16,Nc1nc(N)c2nc(CNc3ccc(C(=O)NC(CCC(=O)O)C(=O)O)cc3)cnc2n1 (configuration not stated),inactive: 13.4%
17,Cc1ccc(C(C)C)c(OCCCn2c(=O)oc3ccc(C)cc32)c1,inactive: -37.6%
18,Cc1ccccc1NC(=O)c1ccc(F)c(S(=O)(=O)N2CCc3ccccc3C2)c1,inactive: -12.3%
19,COC(=O)Cn1ccc2cc(S(=O)(=O)N3CCCCC3)ccc21,inactive: -11.4%
20,Cc1cc(C)c(S(=O)(=O)N2CCC(N3CCN(Cc4ccc(F)cc4)C(=O)C3=O)CC2)c(C)c1,inactive: -6.4%
21,CC(C)c1ccc(NC(=O)c2cnn3c(C(F)F)cc(-c4ccccc4)nc23)cc1,inactive: -8.71%
22,Cc1ccc(C)c(N2CCN(C(=O)C3CCC(CNS(=O)(=O)c4ccc(Br)s4)CC3)CC2)c1 (configuration not stated),inactive: -16.4%
23,O=C(O)COc1ccccc1C1Nc2ccccc2-c2nnc(SCc3ccc(Cl)cc3)nc2O1 (configuration not stated),active: 108%
24,COc1cccc(NC(=O)Cn2c(=O)n(CCCCC(=O)NCc3ccc4c(c3)OCO4)c(=O)c3ccccc32)c1,inactive: -24.1%
25,CCOC(=O)N1CCC(NC(=O)c2cnn(-c3ccc(C)cc3)c2C2CCN(C(=O)OC(C)(C)C)CC2)CC1,inactive: -9.3%
26,COc1ccc(-n2c(SCc3nc(-c4ccc(Cl)cc4)no3)nnc2-c2ccncc2)cc1,inactive: -13%

row,Structure (SMILES),activation
1,CCOc1ccccc1C(=O)Nc1cc(-c2nc3cccnc3s2)ccc1C,inactive: -5.39%
2,CCC(Sc1ncnc2sc3c(c12)CCCC3)C(=O)OCC(C)C (configuration not stated),inactive: -4.1%
3,CCCS(=O)(=O)N1CC(=O)N(c2cc(C)cc(C)c2)C(C)(C(=O)NC2CCCCCC2)C1 (configuration not stated),inactive: -8.88%
4,N#Cc1ccc(NC(=O)c2ccc3c(c2)nnn3C2CCCC2)cc1,inactive: 13.2%
5,Oc1cccc(Nc2cc(-c3ccccc3)ncn2)c1,inactive: -1.1%
6,CC(C)(C)C(=O)Nc1ccc2nc(SCCOc3ccccc3Cl)sc2c1,inactive: 25.5%
7,CCOc1ccc(-c2cc(CCCC(=O)NCCc3ccc(OC)c(OC)c3)no2)cc1,inactive: 19.6%
8,CN(C)c1ccc(C(CNS(=O)(=O)c2ccc(F)cc2)N2CCCC2)cc1 (configuration not stated),inactive: -8.89%
9,O=C(CCS(=O)(=O)c1nc(-c2ccc3c(c2)OCO3)cc(C(F)(F)F)n1)Nc1ccc(F)c(Cl)c1,inactive: -27.7%
10,COc1ccc(Nc2ncc(C(=O)Nc3cc(Cl)c(OC)cc3OC)c3ccccc23)cc1,inactive: -26.4%
11,COc1ccc(N2CCN(C(=O)c3ccc(Nc4nc5ccccc5n5nnnc45)cc3)CC2)cc1,inactive: -21.3%
12,O=c1c2cc3c(cc2n(Cc2cccc(Cl)c2)c(=O)n1Cc1nc(-c2ccccc2)no1)OCO3,inactive: -2.26%
13,CC(=O)N1CCCc2cc(S(=O)(=O)N3CCCC(C(=O)Nc4cccc(F)c4)C3)ccc21 (configuration not stated),inactive: 3.03%
14,COc1ccc(NC(=O)CCNS(=O)(=O)c2cccc3nonc23)c(OC)c1,inactive: -3.56%
15,NC(=NCc1ccccc1)NC(=O)c1nc(Cl)c(N)nc1N,inactive: 6.18%
16,O=C(Nc1ncc(Cc2ccc(Cl)cc2)s1)c1ccc2c(c1)CC(c1ccccc1)OC2=O (configuration not stated),inactive: 10.1%
17,CCCn1c2ccccc2c2cnn(CC(=O)NCCc3ccc(OCC)c(OCC)c3)c(=O)c21,inactive: -7.9%
18,Cc1ccc(NC(=O)CCNS(=O)(=O)c2ccc3c(c2)CCN3C(=O)C2CC2)c(Cl)c1,inactive: 33.3%
19,CCOC(=O)CNC(=O)c1cc2c(=O)n3cccc(C)c3nc2s1,inactive: 3.05%
20,COc1cccc(CNC(=O)CSc2nc3ccccc3nc2Cc2ccc(C)cc2)c1OC,inactive: -9.02%
21,COc1cccc(C2CC(=O)Nc3c2c(=O)nc2c(C)cccn32)c1 (configuration not stated),inactive: 2.21%
22,CCOc1ccccc1NC(=O)CSc1ncc(S(=O)(=O)c2ccc(C(C)(C)C)cc2)c(=O)[nH]1,inactive: 5.98%
23,CCCCNC(=O)CCn1c(=O)c2cccn2c2ccc(F)cc21,inactive: -17.5%
24,O=C(CSc1nc2ccccc2nc1Cc1ccc(Cl)cc1)N1CCN(c2ccccc2F)CC1,inactive: -6.2%
25,Cc1ccccc1OCC(=O)Nc1ccc2nc(SCCOc3ccccc3)sc2c1,inactive: -0.176%
26,CCOc1ccc(-c2cc(C(=O)N3CCN(c4cccc(C)c4)C(C)C3)c3ccccc3n2)cc1 (configuration not stated),inactive: -16.4%

# Source: PubChem BioAssay AID1346428 (National Center for Advancing Translational Sciences (NCATS), 2018)
